What all share (assay): cell-based or functional assay
In assay [1] the target is CHIKV-LR 2006 (virus) (Chikungunya virus strain LR 2006).
Assay [2] addresses ONNV (O'nyong'nyong virus, MP30) envelope glycoproteins (O'nyong'nyong virus strain MP30).
Assay [3] deals with CHIKV-37997 (virus) (Chikungunya virus strain 37997).

B1: 506.A09 (antibody, V domains shown)
VH: QVQLVESGGGVVQPGRSLRLSCAASGFTFSSYAMHWVRQAPGKGLEWVAVISYDGSNKYYADSVKGRFTISRDNSKNTLYLQMNSLRAEDTAVYYCARSPWELDAFDIWGQGTMVTVSS
VL: [about 100 residues left out here]FGPGTKVDIK
Molecule B1 had an FRNT neutralisation, LR 2006 EC50 in assay [1] of 0.055 µg/mL. The FRNT neutralisation of ONNV, EC50 in assay [2] was less than 0.05 µg/mL. In assay [3], this molecule registered an FRNT neutralisation, 37997 EC50 of 0.067 µg/mL.

B2: 520.A06 (antibody, V domains shown)
VH: QVQLVESGGGVVQPGRSLRLSCAASGFTFSSYAMHWVRQAPGKGLEWVALVSYDGSNKYYADSVKGRFTISRDNSKNTLYLQMNSLRAEDTAVYYCARAEWELGSFDPWGQGTLVTVSS
VL: [about 100 residues left out here]
B2 registered an FRNT neutralisation, LR 2006 EC50 in assay [1] of 0.005 µg/mL. For the same molecule, the FRNT neutralisation of ONNV, EC50 in assay [2] was less than 0.05 µg/mL. In addition, the FRNT neutralisation, 37997 EC50 in assay [3] is 0.06 µg/mL.

B3: 506.C07 (antibody, V domains shown)
VH: QLQLQESGPGLVKPSETLSLTCTVSGGSISSSSYYWGWIRQPPGKGLEWIGSIYYSGSTYYNPSLKSRVTISVDTSKNQFSLKLSSVTAADTAVYYCARDTPYCSSTSCYMGDFDYWGQGTLVTVSS
VL: [about 100 residues left out here]PLFTFGPGTKVDIK
With B3, the FRNT neutralisation, LR 2006 EC50 in assay [1] is 0.515 µg/mL. Besides, in assay [3], the FRNT neutralisation, 37997 EC50 was 0.333 µg/mL.

The values are drawn from US20260062466A1.
